The target in the test is human RET on cells (MCF7/SRE-Luc; HEK293/hGFRα3/hRET/SRE-Luc; HEK293/hGFRα1/hRET/SRE-Luc) (human), P07949. Description: cell-based or functional assay.

B1: H4H8044P (antibody, human IgG4, V domains shown)
VH: QVQLVESGGGVVQPGRSLRLSCAASGFTFSGSGMHWVRQAPGKGLEWVAVIWEDGSNKYYADSVRGRFTISRDNFKNTLYLQMNSLRAEDTAVYYCARQTMVRGVIRFYYYYYGMDVWGQGTTVTVSS
VL: [sequence of about 100 residues omitted]PTFGQGTKVEIK
Turning to B1, the 293/hGFRα3/hRET SRE-luc % Blocking was 77%, the 293/hGFRα3/hRET/SRE-Luc IC50 was 1.6 nM, the MCF7/SRE-Luc % Activation turned out to be 2% and the MCF7/SRE-Luc Avg % Blocking stood at 85%. The molecule also gave an MCF7/SRE-luc Avg. IC50 of 2.1 nM.

The values above are taken from US20220185900A1.
